# Data reported in PMC4336329 (PLoS ONE, 2015).
# Screen size: about 310,000 compounds; about 14,000 (4.5%) showed an effect of 50% or more. Effects have a minus sign here. The list shows a part of the results. Where a SMILES comes first, the peptide text is derived from it. The star is where a group is joined. Boc = CC(C)(C)OC(=O)*
# Target: human ether-à-go-go-related gene (hERG) potassium channel (human, UniProt Q12809)
# Test: primary screen, population patch clamp on CHO cells stably expressing hERG
# 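Also: peak tail current of the secondary pulse compared with the same well before compound.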
# Sequence of human ether-à-go-go-related gene (hERG) potassium channel (Q12809 whole entry, looked up): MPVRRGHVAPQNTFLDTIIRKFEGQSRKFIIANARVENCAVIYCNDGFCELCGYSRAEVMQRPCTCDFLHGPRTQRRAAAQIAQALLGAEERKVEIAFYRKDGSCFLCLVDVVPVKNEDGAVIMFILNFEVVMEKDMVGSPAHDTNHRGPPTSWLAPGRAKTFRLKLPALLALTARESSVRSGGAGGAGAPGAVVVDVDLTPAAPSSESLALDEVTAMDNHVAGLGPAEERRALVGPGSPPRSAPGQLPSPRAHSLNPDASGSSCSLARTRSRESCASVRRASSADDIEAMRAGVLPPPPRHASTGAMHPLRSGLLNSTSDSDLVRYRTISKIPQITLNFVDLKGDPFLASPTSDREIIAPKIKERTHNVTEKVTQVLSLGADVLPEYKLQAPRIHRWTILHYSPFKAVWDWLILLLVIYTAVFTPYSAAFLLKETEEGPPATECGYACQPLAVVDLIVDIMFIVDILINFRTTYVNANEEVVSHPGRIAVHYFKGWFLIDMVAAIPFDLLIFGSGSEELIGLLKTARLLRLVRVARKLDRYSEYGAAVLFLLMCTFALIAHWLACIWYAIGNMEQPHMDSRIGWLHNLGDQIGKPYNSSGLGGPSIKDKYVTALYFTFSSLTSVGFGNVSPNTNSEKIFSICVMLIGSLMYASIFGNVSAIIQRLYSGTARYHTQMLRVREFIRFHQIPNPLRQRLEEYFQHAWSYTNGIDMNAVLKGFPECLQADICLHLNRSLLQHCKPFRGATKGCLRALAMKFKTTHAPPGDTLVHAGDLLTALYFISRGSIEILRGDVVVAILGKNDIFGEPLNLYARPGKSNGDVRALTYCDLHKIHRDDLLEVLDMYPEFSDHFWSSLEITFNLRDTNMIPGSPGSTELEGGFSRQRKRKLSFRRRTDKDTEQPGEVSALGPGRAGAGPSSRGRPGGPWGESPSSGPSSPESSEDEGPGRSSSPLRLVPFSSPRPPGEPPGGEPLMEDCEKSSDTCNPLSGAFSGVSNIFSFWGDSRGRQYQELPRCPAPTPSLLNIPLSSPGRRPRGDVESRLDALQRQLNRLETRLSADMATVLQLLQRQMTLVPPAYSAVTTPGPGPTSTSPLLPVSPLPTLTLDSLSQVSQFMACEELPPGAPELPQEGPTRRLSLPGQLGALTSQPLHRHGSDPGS
row,Structure (SMILES),"hERG current change (%, negative = inhibition) at 10uM"
1,CC(=O)c1cccc(NC(=S)NC(=O)c2ccccc2)c1,1.98%
2,COc1ccc(Nc2cc(C)nc(-n3nc(C)cc3C)n2)cc1,-16.7%
3,COc1cc(CNCCC2CCOC(C)(C)C2)ccc1O.Cl (centres unmarked),5.47%
4,COc1ccc(N2CCN(C(=O)C(=O)c3c(C)[nH]c4ccccc34)CC2)cc1,-14.1%
5,COc1ccccc1NC(=O)NNC(=O)c1ccc2c(c1)NC(=O)C(C)(C)O2,17.8%
6,COc1ccccc1NC(=O)NC(N)=O,2.19%
7,COc1ccc(N2CCN(Cc3cc4c(cc3O)CCC4)CC2)cc1,-12.4%
8,CC1CCN(CC(O)COc2ccc(C(=O)c3ccccc3)cc2)CC1 (centres unmarked),-67.4%
9,CN1C(=O)C(Cc2ccsc2)C(=O)N(C)C1=O,4.98%
10,CCO[C@H]1OC(C(=O)N2CCCCCCC2)=C[C@@H](c2csc3ccccc23)[C@@H]1CCCO,-23.3%
11,NC(N)=NS(=O)(=O)c1ccc(NC(=S)NC(=O)/C=C/c2ccc(F)cc2)cc1,10.9%
12,COc1ccc(/C(O)=C2/C(=O)C(=O)N(CCN(C)C)C2c2ccc(C)cc2)cc1Cl (centres unmarked),5.16%
13,CC(C)N1CCc2c(sc(NC(=O)c3ccco3)c2C(N)=O)C1.Cl,-6.82%
14,CCn1nnnc1SCC(=O)Nc1cc(C)on1,1.97%
15,O=[N+]([O-])c1cc(S(=O)(=O)N2CCCCC2)ccc1NCCCN1CCOCC1,-47.8%
16,Cc1ccc2c(c1)c1c(n2C)-c2[nH]ncc2CC1,4.45%
17,Cc1nc(N2CCN(c3ccccn3)CC2)c2c(C)c(C(=O)Nc3ccccc3F)sc2n1,-55.3%
18,C#CCOCCOCCOCCNc1nc(N2CCN(C(=O)[C@H]([C@@H](C)CC)n3cc(CCCC[NH3+])nn3)CC2)nc(N2CCN(C(=O)[C@H](CCCC[NH3+])n3cc(CC(C)O)nn3)CC2)n1.[Cl-] (some centres unmarked),14.3%
19,CC(=O)c1ccc(OC(=O)COc2ccccc2Cl)cc1,20.4%

row,Structure (SMILES),"hERG current change (%, negative = inhibition) at 10uM"
1,Cc1ccccc1CN1CCCC(C(=O)Nc2ccc(-c3ccn[nH]3)cc2)C1 (centres unmarked),8.89%
2,CCOCCCn1c(=N)c(S(=O)(=O)c2ccccc2)cc2c(=O)n3cc(C)ccc3nc21,-19.1%
3,C=CCNC(=O)Nc1ccc(Cl)cn1,-5.41%
4,CCN1CCCc2cc(CN(CCN3CCOCC3)C(=S)Nc3cc(F)cc(F)c3)ccc21,-1.04%
5,CCc1cccc(OCCN2CCCC2)c1,-12.7%
6,C=CCn1c(COc2cccc3ccc(C)nc23)nnc1SCC(N)=O,-0.0884%
7,CC(=O)Nc1ccc(S(=O)(=O)N2CCCC3CCCCC32)cc1 (centres unmarked),-3.38%
8,COc1ccc(C(C)=O)cc1COC(=O)c1cc2ccccc2cc1O,9.93%
9,O=C1OCCC1Sc1nc(-c2ccccc2)cs1 (centres unmarked),-7.33%
10,CC(Cl)C(=O)Nc1cc(C(C)(C)C)nn1-c1ccccc1 (centres unmarked),26.7%
11,Cc1ccc(C(=O)N2CCN(c3ccc([N+](=O)[O-])cc3-n3cccc3)CC2)cc1,-56.4%
12,Cc1ccc(C(=O)Nc2ccc3ncccc3c2)cc1,-0.506%
13,CN(C)CC1CCCCC1=O.Cl (centres unmarked),15.6%
14,Cl.Cn1cccc1CNCc1ccccc1Cl,0.741%
15,CCCCNc1c(-c2cccc(-c3cc(C(C)=O)cs3)c2)nc2ccc(C)cn12.O=C(O)C(F)(F)F,-8.02%
16,Oc1c(Br)cc(Br)cc1C=Nc1cccnc1,-11.1%
17,CCn1c(SCc2ccc(OC)c(F)c2)nc2ccccc2c1=O,23.4%
18,COc1cc(OC)c(C(=O)N2CCCC2)cc1OC,3.36%
19,CC(C)Cc1ccc(C(C)C(=O)Nc2ccccc2O)cc1 (centres unmarked),-5.17%

row,Structure (SMILES),"hERG current change (%, negative = inhibition) at 10uM"
1,COc1ccccc1N1CC(C(=O)Nc2ccc3c(c2)OCO3)CC1=O (centres unmarked),13.6%
2,O=C1c2ccccc2NC(c2cccc(F)c2)N1Cc1ccccc1 (centres unmarked),-71.1%
3,Cc1c(Cl)cccc1NC(=O)[C@@H](NC(=O)c1ccccc1Cl)C(C)C,11.7%
4,CCOC(=O)c1cnc(-n2nc(C)cc2C)nc1N(C)C,-4.36%
5,CCOC(=O)N1CCN(C(=O)c2cccc(S(=O)(=O)Nc3ccc(OC)cc3)c2)CC1,-11.9%
6,O=C(CSc1c2c(nc3cc(Cl)ccc13)CCCC2)NCCN1CCOCC1,3.58%
7,COC(=O)CSc1nnc(SCc2ccc(Cl)cc2)s1,-0.477%
8,CCN(CC)C(=O)CSc1nnc([C@@H](N)C(C)C)o1.Cl,20.2%
9,COc1ccccc1CNC(=O)CN(c1ccc(C)cc1)S(=O)(=O)c1c(C)n[nH]c1C,-1.97%
10,O=C(CCCC(=O)OCC(=O)NC1CCCC1)Nc1ccccn1,-10.9%
11,O=C(O)CCCN1C(=O)NC2NC(=O)NC21 (centres unmarked),6.07%
12,CCC(=O)N1CCc2cc(S(=O)(=O)N3CCN(c4cc(C)ccc4C)CC3)ccc21,9.5%
13,O=C1c2ccccc2C(=O)N1CCSc1nncs1,-6.79%
14,Cc1ccc(-n2c(SCC(=O)NCC3CCCO3)nc3c(c2=O)SCC3)cc1 (centres unmarked),-28.8%
15,Cc1ccc(NCc2nnc(SCC(=O)Nc3ccccc3)n2CC2CCCO2)c(C)c1 (centres unmarked),-0.0882%
16,Cc1ccc(NC(=O)CS(=O)CC(=O)NC2CCN(Cc3ccccc3)CC2)c(C)c1 (centres unmarked),-3.54%
17,COc1ccc([N+](=O)[O-])c(OC)c1C(=O)NC(=O)Nc1nc(C)nc(C)n1,-4.9%
18,CCOC(=O)C(Cc1ccc(O)cc1)NC(=O)CNC(=O)C1CCCN1C(=O)OC(C)(C)C (stereo not drawn) (Boc-Pro-Gly-Tyr-OEt; configuration not given here),21.5%
